What all share (test): Primary Screen for Target Class Profiling of Small Molecule Inhibitors of Methyltransferases
Test [1] addresses Glycine N-methyltransferase (Homo sapiens) (UniProt Q14749). Conditions: purified enzyme, MTase-Glo SAH luminescence; measured here: GNMT inhibition; at 40 µM; stronger effect = lower value. In short, it runs like this: (§1)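 Each enzyme was assayed with SAM and its substrate. SAH formation detected by MTase-Glo luminescence; single-point 40 uM screen[…].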
For test [2], the target named is Guanidinoacetate N-methyltransferase (Homo sapiens) (UniProt Q14353). The settings on record: purified enzyme, MTase-Glo SAH luminescence; measured here: GAMT inhibition; at 40 µM; stronger effect = lower value. In short, it runs like this:
as §1

The target in test [3] is Histamine N-methyltransferase (Homo sapiens) (UniProt P50135). The settings on record: purified enzyme, MTase-Glo SAH luminescence; measured here: HNMT inhibition; at 40 µM; stronger effect = lower value. The gist of the method:
as §1

Test [4] addresses Nicotinamide N-methyltransferase (Homo sapiens) (UniProt P40261). The settings on record: purified enzyme, MTase-Glo SAH luminescence; measured here: NNMT inhibition; at 40 µM; stronger effect = lower value. The gist of the method:
as §1

Test [5] has as its target Phenylethanolamine N-methyltransferase (Homo sapiens) (UniProt P11086). Conditions: purified enzyme, MTase-Glo SAH luminescence; measured here: PNMT inhibition; at 40 µM; stronger effect = lower value. In short, it runs like this:
as §1

Values joined by “and” are separate entries in the source; they are usually repeats but may differ in a detail not shown here. Identical values can stand only once. Some of the results follow. Shown are side measurements of this screen, not its main read-out; they come without a call.
% is scaled to controls: 0 for no effect and ±100 for the full control effect.

Turning to `CN1CC2(CCCN(C3CCN(C(=O)c4cnccn4)CC3)C2)OC1=O` (centres undefined), the activity change, negative = inhibition in test [1] is -2.74%; in test [2] it was 0.603%; in test [3], 3.12%; in test [4], 0.966%; in test [5], 5.35%.
Consider `CCCn1c(=O)c2ccc(C(=O)NC(C)CC)cc2n2c(=O)n(CC(=O)NC(C)(C)C)nc12` (centres undefined), for which the activity change, negative = inhibition in test [1] amounted to 5.22%; in test [2] it was 0%; in test [3], 12%; in test [4], 2.26%; in test [5], 6.22%.
For `CSc1ccc(-c2nc3c([nH]2)CC(C)(C)CNC3=O)cc1`, the activity change, negative = inhibition is -6.2% in test [1]; 0.89% in test [2]; -3.75% in test [3]; -9.27% in test [4]; -0.576% in test [5].
In the same order, the values of `COC(=O)c1ncn2c1C(=O)N(Cc1cccc(OC)c1OC)C(C)(C(=O)NC1CCCC1)C2` (centres undefined) are 4.1%, 0%, 6.57%, 0.1% and 4.41%.
With `CC1(C(=O)NC2CCCCC2)Cn2nc(-c3ccco3)cc2C(=O)N1c1ccc(F)cc1` (centres undefined), the activity change, negative = inhibition in test [1] is -1.02%; in test [2] it was 5.38%; in test [3], -2.74%; in test [4], -1.45%; in test [5] it was -3.47%.
Turning to `CCCn1c(=O)c2ccc(Cl)cc2n2c(=O)n(CC(=O)c3ccc(F)cc3)nc12`, the activity change, negative = inhibition in test [1] was -1.31%; in test [2] it was 0%; in test [3], 11.1%; in test [4] it was 1.18%; in test [5] it was 6.62%.
On to `COc1ccc(OC)c(S(=O)(=O)N2CCC3(CC2)CC(CC(=O)N2CCCC2)CCO3)c1` (centres undefined), for which the activity change, negative = inhibition was -7.42% in test [1]; 1.44% in test [2]; -4.01% in test [3]; -10.1% in test [4]; -3.45% in test [5].
In the case of `Cn1c2ccc(F)cc2c2c(C(=O)N3CCCC3)cn(-c3ccccc3)c(=O)c21`, the activity change, negative = inhibition in test [1] is 6.9%; in test [2], 3.89%; in test [3], 7.43%; in test [4], -22.8%; in test [5] it was -2.58%.
Regarding `CCOC(=O)c1cc2n(n1)CC(C)(C(=O)NC1CCCCCC1)N(c1ccc(Cl)cc1C)C2=O` (centres undefined), the activity change, negative = inhibition in test [1] is 2.92%; in test [2] it was 0.225%; in test [3], -5.9%; in test [4] it was 0.565%; in test [5], 2.81%.
In the case of `Cc1nnc([C@@H]2CC(F)(F)CN2C(=O)c2conc2C)o1`, the activity change, negative = inhibition was 1.59% in test [1]; 0.93% in test [2]; 3.75% in test [3]; -0.808% in test [4]; -0.15% in test [5].
With `CCOc1ccc(CN2C(=O)c3cc4sccc4n3CC2(C)C(=O)NC2CCC(C)CC2)cc1` (centres undefined), the activity change, negative = inhibition in test [1] was 0.573%; in test [2], -4.79%; in test [3], 1.03%; in test [4], -3.14%; in test [5], -5.46%.
For `O=C(NCc1ccccc1)c1ccc2c(=O)nc3c(-c4cccc(F)c4)n[nH]n3c2c1`, in that order: -7.22%, 1.59%, -5.19%, -13.6% and -7.83%.
On to `Cn1ccnc1CN1CCN(c2nccc(-c3cccnc3)n2)CC1`, for which the activity change, negative = inhibition in test [1] was -5.42%; in test [2] it was -2.83%; in test [3], -1.3%; in test [4] it was -2.13%; in test [5] it was -0.952%.
For the compound `CC#C[C@@H](CC(=O)O)c1ccc(OCc2cccc(-c3ccc(C(F)(F)F)cc3)c2)cc1`, the activity change, negative = inhibition in test [1] was -20.7%; in test [2], -1.27%; in test [3] it was -2.47%; in test [4] it was -52.6%; in test [5] it was -0.168%.
Consider `CCOC(=O)c1cc2n(n1)CC(C)(C(=O)NC1CCCCCC1)N(Cc1ccc(Cl)cc1)C2=O` (centres undefined), for which the activity change, negative = inhibition in test [1] was 4.77%; in test [2], 0%; in test [3], -3.04%; in test [4], 1.31%; in test [5], 5.12%.
As to `CN1CCc2cc(Cl)c(O)cc2[C@@H](c2ccccc2)C1`, the activity change, negative = inhibition in test [1] is -2.23%; in test [2] it was 7.24%; in test [3], -11.9%; in test [4], -3.18%; in test [5], 7.39%.
With `CC(C)NC(=O)c1ccc2c(=O)n(C(C)C)c3nn(Cc4ccccc4Cl)c(=O)n3c2c1`, the activity change, negative = inhibition in test [1] turned out to be 3.05%; in test [2] it was 1.17%; in test [3], 5.26%; in test [4], 2.72%; in test [5], 2.78%.
Turning to `OC[C@H]1O[C@@H](OC(CCCCc2ccc(O)cc2)CCc2ccc(O)cc2)[C@H](O)[C@@H](O)[C@@H]1O` (some centres undefined), the activity change, negative = inhibition is 0% in test [1]; -2.91% in test [2]; 3.3% in test [3]; -16.2% in test [4]; -11.5% in test [5].
For `Nc1ccc(N2C(=O)c3ccccc3C2=O)c(Cl)c1`, the activity change, negative = inhibition is -12.6% in test [1]; 0.682% in test [2]; -1.08% in test [3]; -8.93% in test [4]; 0.225% in test [5].
Consider `Fc1cc(F)cc(Cc2nc3nccc(-c4cccnc4)n3n2)c1`, for which the activity change, negative = inhibition in test [1] was -4.28%; in test [2], 0.207%; in test [3], -0.57%; in test [4], -5.93%; in test [5], -1.03%.
For `CCn1ccc(C(=O)N2CCCC(CO)CCNC(=O)CC2)n1` (centres undefined), in that order: 0.374%, 1.3%, -2.46%, -0.942% and 0.394%.
Regarding `COc1cc(OC)cc(C(=O)N[C@@H]2COCC[C@@H]2Oc2cccc(F)c2)c1`, the activity change, negative = inhibition is -1.6% in test [1]; -1.23% in test [2]; 0.46% in test [3]; -7.69% in test [4]; -17.1% in test [5].
In the same order, the values of `CC(C)NC(=O)c1ccc2c(=O)n(C(C)C)c3nn(CC(=O)NC4CCCC4)c(=O)n3c2c1` are 6.02%, 0.162%, 6.95%, 2.51% and 5.1%.
With `C=Cc1ccc(Cn2nc3n(CC(C)C)c(=O)c4ccc(C(=O)NC5CCCCC5)cc4n3c2=O)cc1`, the activity change, negative = inhibition is -4.5% in test [1]; 0.662% in test [2]; 1.13% in test [3]; -0.022% in test [4]; 3.89% in test [5].
On to `CCOC(=O)C1CCN(c2nc3c(S(=O)(=O)c4ccccc4)nnn3c3ccc(Cl)cc23)CC1`, for which the activity change, negative = inhibition in test [1] is 0.409%; in test [2], 2.87%; in test [3], 0.81%; in test [4] it was -0.509%; in test [5] it was -0.61%.
For the compound `COc1cc2c(cc1-c1c(C)noc1C)ncc1[nH]c(=O)n(C(C)c3ccccn3)c12` (centres undefined), the activity change, negative = inhibition is -48.4% and -82.9% in test [1]; 6.67% and 2.14% in test [3]; -24.2% in test [4]; 3.92% in test [5].
With `COc1ccc(CNC(=O)Cn2nc3n(Cc4ccccc4)c(=O)c4ccccc4n3c2=O)cc1`, the activity change, negative = inhibition was 0.679% in test [1]; 4.59% in test [2]; -1.82% in test [3]; 0.027% in test [4]; 1.86% in test [5].
For `CC1(C(=O)NC2CCCCC2)Cn2c(cc3sccc32)C(=O)N1Cc1cccc(Cl)c1` (centres undefined), in that order: -2.64%, 1.88%, 1.67%, -4.33% and -3.71%.
For `O=S(=O)(NCc1ccc(Cl)cc1)c1ccc2[nH]c3c(c2c1)CCCC3`, the activity change, negative = inhibition in test [1] is -3.3%; in test [2] it was 0%; in test [3], 3.04%; in test [4], -0.474%; in test [5], -0.993%.
For the compound `CCOC(=O)c1cccc(NS(=O)(=O)c2ccc3[nH]c4c(c3c2)CCCC4)c1`, the activity change, negative = inhibition in test [1] is -10.1%; in test [2], -1.69%; in test [3], -1.97%; in test [4] it was -8.68%; in test [5], -1.97%.

The values are drawn from PubChem BioAssay AID1745853 (National Center for Advancing Translational Sciences (NCATS), 2022).
